# Laboratory results reported in the supplement of paper PMC11417369.
# The list shows a part of the results.
# Test system: PF3D7_0420300 AP2 domain 1 (GST-tagged)
# Test: gcPBM binding intensity (ln(normalized median fluorescence intensity)); higher = stronger DNA binding
# How it was run: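 Binding of GST-tagged P. falciparum DNA-binding domains, expressed in E. coli and used at about 25 μg on average, was carried out for 1 h in 1× PBS containing 1% milk, 0.2 mg/ml BSA, 0.5% salmon testes DNA and 0.03% Triton X-100. The target was an Agilent 4 × 180k array of primer-extended double-stranded 36-bp intergenic genomic probes plus negative controls, read with Alexa488 anti-GST antibody at 488 nm. Binding intensity is the highest Masliner-normalised natural-log median intensity across replicate spots of either probe orientation.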
row,Sequence,gcPBM binding intensity (ln)
1,TATAGGAATATATGGTGTACCTATAAATCTGACATA [XGTACX_site8111],9.17
2,ATTTATATATTTATACGTACTTATATATTGTTACAT [XGTACX_site6254],9.7
3,AAAAATAAAAATTGCACACTAAAAAATTACGCACGA [CACACA_site3418],9.59
4,TAGAAAATATAAAAATGTACGTAAATAAAATGTGCA [XGTACX_site3459],9.56
5,TCTTAAGGAAAAGAGTGTACAGAAATTTTTATTAAC [XGTACX_site6139],9.05
6,AATTATATTACAAACTGTACATATATAATTTGTCCA [XGTACX_site6009],9.1
7,ATCCGAGTGTGAAATACACACATGATAATGTGAATG [CACACA_site919],9.4
8,TATAATGAGGATAATAGTACATATGAATACAAAAAA [XGTACX_site3665],9.43
9,TACACAAGCAGACACACACACATATAGATTTATATA [CACACA_site6715],9.9
10,GCCATAAAAATATATACACACATAAAAAAAAATTAT [CACACA_site1176],9.56
11,TTAATATTGTATTTCACACATAATTTAATATACTCA [CACACA_site5678],9.19
12,TATATATATAATATTACACACATATATTTATATTTT [CACACA_site3460],9.48
13,TATGGTATATACAACACACACACATATGTATAAATA [CACACA_site6562],9.91
14,ATTTATACATGCTAATGTACTTATTTCACCTATATC [XGTACX_site3120],9.26
15,CAAGTATTAATTATGTGTACATATATATATATATAT [XGTACX_site5311],9.45
16,TATGTATTTATCCACTTACATTTTTACTTTTCCATT [CACACA_negctrl_site1141],9.51
17,ACATGAAATGTTTAAAGTACATATATAAATTTTTTT [XGTACX_site4519],9.13
18,ATATATAGATAATCAAGTACATAACAAGATATAAGA [XGTACX_site2186],9.55
19,TACTGATCTTTCTAGGTGCGCTGCTACCATTATCGT [GTGCAC_site9538],9.06

row,Sequence,gcPBM binding intensity (ln)
1,AAATGTGAAGTGAATACACACCTAATAAATATAACA [CACACA_site5727],9.39
2,TATATTTAATTATTATGTACTTATAATTTTTGAAAG [XGTACX_site8548],8.95
3,CTTTCCTATTTGACACGTACGAAATTTTACATAAAA [XGTACX_site6689],9.15
4,AAATATATATACACATATATATATATATATATATAT [CACACA_negctrl_site1742],9.14
5,TATGAAATATCGTGCACACACGAATAATATAAGAAT [CACACA_site4842],9.56
6,AAAATAAAAAATATAACACACAATAAATATTTATAT [CACACA_site6986],9.77
7,TATTCCTAATTGACAACACACACAACAAAAAAGGGA [CACACA_site8350],9.94
8,TATAAATAGAGACACACACACATATAAATAAATATT [CACACA_site7854],10.1
9,TATATTTCTTCTATAACATGCAGATATATGAAAATA [TGCATGCA_site971],8.91
10,ATATATTTTTTGAATACACACATATTATCTGTAATA [CACACA_site4826],9.49
11,CTATAATATGGTATTACACACTGTTATAAGTATGGC [CACACA_site7068],9.48
12,AGAATTATTTTATGTTTGCACTTTTTTTTTCTATAA [GTGCAC_site9876],9.51
13,ATTATTAACATATATATACACACGAAAAAATTATAT [CACACA_site625],9.73
14,TAATGAAATATTATGTGTACTTAAAAATTATTAAAT [XGTACX_site5261],9.02
15,ATTTTAGGAAAAAAAAGTACATATAATTTTTTATAT [XGTACX_site6954],8.88
16,TGTTTGCTTATGTGTTAAATATATATATATATATAT [TGCATGCA_negctrl_site218],9.42
17,CGAACACAAACACAAACACACATCAGATATAAATAT [CACACA_site6736],9.66
18,TTTTTTTTGATATATACACACAATAAATAAATATAA [CACACA_site7400],9.31
19,ATTTATTATTATATCACACATAATATATTAAATGAT [CACACA_site5821],9.09

row,Sequence,gcPBM binding intensity (ln)
1,TATGGAGAAATAAATAGTACGTATTTTATTTAAAAA [XGTACX_site3129],9.12
2,AAAAATATAAAAATAGCACACATATATACATATATA [CACACA_site7901],9.48
3,TTTCCTAGCACATGCACACAAAAAAAAAAAAAAAAA [CACACA_site1404],8.89
4,ATGTTCGATGATAAATGTACAAAAATAATGGAAGTA [XGTACX_site1916],9.43
5,TATAAAAATATTGAAAGTACTTATTAAAATATTATT [XGTACX_site3701],9.1
6,CTTGCAAAAAGTATATGTACATATATATATATATAT [XGTACX_site5792],9.19
7,ATTGATACATCCAATACACACTACATATAATGATGT [CACACA_site8561],9.42
8,ATATTAATAATATATGCATGCATTAACATATTGAAA [TGCATGCA_site951],9.1
9,GTATGTATGTATATATGTACACATTATTATTTAATG [XGTACX_site5802],9.3
10,TTTTTTATATATACATATATATAAATATATATAACT [GTGCAC_negctrl_site385],8.99
11,GAGAAAAGGAAATTCACACATATAAAGAAAGATCTA [CACACA_site5420],9.19
12,TTTTTGTTCTATATGGTGCATGTTTATATTCGTATT,9.75
13,ATTAGCAACATTGATAAATATAAACACACGAAAACA [TGCATGCA_negctrl_site97],9.71
14,TTTTAGAAATTTACTAAACTTTATATAACTATTGAA [TGCATGCA_negctrl_site280],8.78
15,ATACCATAAATATTGTGTACATAAATATGTTAGTAA [XGTACX_site6077],9.28
16,CACGTATATATATATACACACACATATATATATGTA [CACACA_site7948],9.69
17,CATGTTTATGCCGTTTGTACATATATATCTAAAAAA [XGTACX_site4336],9.18
18,ATGATTATAATTTAAAATATTTTACATAACCATTTC [GTGCAC_negctrl_site297],9.14
